Data from the supplement of paper PMC4466236.
The full ranking holds about 33,000 sequences; the median of “E-score (dimensionless, -0.5 to 0.5)” is about -0.058, and the highest 2% start at about 0.35. Some of the results follow.

Tested on: MvaT
Experiment: PBM 8-mer E-score (mean of HK and ME arrays) (E-score (dimensionless, -0.5 to 0.5)); higher = stronger relative binding preference; most listed sequences are background and not binding sites
Procedure, shortened: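 Full-length P. aeruginosa MvaT carrying an N-terminal glutathione S-transferase tag was tested by protein binding microarray following a previously described protocol. Two universal double-stranded 60-mer arrays, ME and HK, were used, each with a constant 25-mer primer region and a variable 35-mer region covering all 8-mers. The rank-based E-score is the mean of the two arrays, parsed with a custom script. Its range runs from -0.5 to 0.5 for each 8-mer.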

Point of comparison: ATTAATCA, “PBM 8-mer E-score” value 0.405. Against it:
- CCTGCGAA — lower, -0.106
- CAGCAGAA — lower, -0.0822
- CTAACTAG — lower, 0.0036
- CTACACGA — lower, -0.0126
- AAACATCC — lower, 0.13
- ATGGCAAA — lower, -0.0106
- AACATGAG — lower, 0.146
- CACACACA — lower, 0.0908
- AGGCACAT — lower, -0.0523
- CGCATGAA — lower, -0.0415
- AGAAGAAC — lower, -0.0192
- AATGTATC — lower, 0.252
- TAAAACGA — lower, 0.205
- CAAGTGAG — lower, -0.181
- AATAGAGT — lower, 0.0931
- CAATGTAA — lower, 0.236
- ACAACCAG — lower, -0.0427
- ATGTACCC — lower, 0.0866
- TCATGACA — lower, -0.0413
- GAACGACC — lower, -0.135
- CCTGAAGA — lower, 0.0868
- AAAACCGA — lower, 0.0671
- AGCAGGGA — lower, -0.154
- CTCCACAG — lower, -0.203
- AATGTCTG — lower, -0.0324
- AATCGAGG — lower, 0.019
- CGCGATGA — lower, -0.0178
- TCCCGTCA — lower, -0.176
- CCACAGAG — lower, -0.0972
- CCAAAACA — lower, 0.0855
- TCTATGAA — lower, -0.00325
- ATCCCAGA — lower, -0.203
- ACCTGCCA — lower, -0.23
- GGCTGCAA — lower, -0.126
- TGCTTCAA — lower, 0.0137
- ACATTCCA — lower, 0.0119
- ATAGAGGA — lower, -0.0011
- AGGCAGTG — lower, -0.201
- ACCTCTCG — lower, -0.174
- ATGTAGCG — lower, 0.0264
- AATGGATC — lower, 0.0131
- GAGATAAA — lower, 0.08
- ACCTCAGA — lower, -0.115
- AGGCCGCC — lower, -0.297
- ACCGGCCA — lower, -0.294
- GAGATCCC — lower, -0.302
- CTCACAAC — lower, -0.0135
- TAATCGGA — lower, -0.0465
- ATCCTCGA — lower, -0.108
- CGTTAAGA — lower, 0.0577
- AGTCACAT — lower, -0.0559
- TGTGGTAA — lower, 0.0918
- ATGGTCAC — lower, -0.131
- CGCGAGAG — lower, -0.158
- ACGGAAAA — lower, 0.0619
- AACCGGAC — lower, -0.0871
- AAGTTGCA — lower, 0.144
- GAAGCAAA — lower, -0.0956
- AAGCGGCA — lower, -0.0224
- CAGTAGGC — lower, -0.318
- AACCCAAG — lower, -0.0603
- CGGGGCGA — lower, -0.231
- AGTACGAT — lower, 0.0378
- CTCGAGAC — lower, -0.0769
- ATCAACTC — lower, 0.0659
- CCGCGCGA — lower, -0.104
- GTTATATA — higher, 0.456
- TGTACGAA — lower, 0.0758
- ATTATAAT — higher, 0.468
- CTTGTGGC — lower, -0.154
- ACAATCAG — lower, 0.0332
- GGGTCTTA — lower, -0.076
- CACGGCAC — lower, -0.047
- CACTTAAC — lower, 0.132
- ACCTCCGT — lower, -0.218
- GTACGTTA — lower, 0.2
- CTTATACC — lower, 0.268
- AGTCTAAA — lower, 0.133
- CCAGAAAC — lower, -0.0182
- ACCAACTC — lower, -0.0171
- ACGCCAGT — lower, -0.271
- GTTTCGTA — lower, 0.0193
- GGGGCCCC — lower, -0.29
- CTTCCGAC — lower, -0.0694
- GGAAACAA — lower, 0.206
- ACGAATAC — lower, 0.157
- AATACGGC — lower, 0.183
- AGTTGTGA — lower, 0.159
- CCAAACAA — lower, 0.0179
- ACACCATG — lower, -0.0471
- AAGCCTCG — lower, -0.197
- GATCAGAC — lower, -0.035
- CCGCCCGC — lower, -0.0309
- ATTATTGC — lower, 0.292
- CCTTGTAA — lower, 0.14
- CCCCTGTA — lower, -0.28
- CAATCAAA — lower, 0.173
- AACAATCC — lower, 0.126
- ACACTAAT — lower, 0.345
- CGGCTGTC — lower, -0.311
- CCCGGCTC — lower, -0.251
- CGAGCGTC — lower, -0.177
- CCTTCGAA — lower, -0.024
- AGACTCTA — lower, -0.0143
- TAGATTAA — lower, 0.266
- CGTTGTGC — lower, -0.144
- AAGGCGAC — lower, -0.204
- CTATCGGC — lower, -0.185
- CAGCTGAC — lower, -0.0993
- CACACTCG — lower, 0.0108
- ACGGCAGT — lower, -0.207
- ATCCACAA — lower, 0.169
- CACGTCGC — lower, -0.239
- GCAGGAGC — lower, -0.317
- GAGATATA — lower, 0.303
- ATTCCTTC — lower, -0.0387
- GACGAACC — lower, -0.212
- ATGGTAGC — lower, -0.0782
- ACTTGTAC — lower, 0.158
- CCTCTTCC — lower, -0.292
- AAGGTACC — lower, -0.0656
- GTTACAAA — lower, 0.245
- CCAGCGCA — lower, -0.0535
- AGGGGCTC — lower, -0.394
- TACCCTCA — lower, -0.17
- GCCCAGTA — lower, -0.124
- TAAGCGTA — lower, 0.148
- CGCGGTTC — lower, -0.155
- GAGGCACA — lower, -0.222
- AGGAGGCG — lower, -0.269
- GGCCGTTA — lower, -0.0451
- GGGGGGCA — lower, -0.304
- GTCGTTTA — lower, 0.167
- AGATGATG — lower, -0.113
- ACCCCAGT — lower, -0.141
- CTTCCATA — lower, 0.0142
- CAGGAAGG — lower, -0.199
- CAGGTAGA — lower, -0.0433
- TCGGTAGA — lower, -0.097
- CAGTCTAA — lower, -0.0664
- TGACCCCA — lower, -0.229
- GGCTAGCC — lower, -0.351
- ACGGGCTG — lower, -0.139
- AGTTAACG — lower, 0.204
- AGAGGGAG — lower, -0.167
- AAAATCTT — lower, 0.102
- AATTACCT — lower, 0.166
- GGGCATTA — lower, -0.0452
- CTTAGCTC — lower, -0.105
- CCTTCCAC — lower, -0.103
- GCTCACTA — lower, -0.0905
- ACCGGCAC — lower, -0.089
- ACAGTGAG — lower, -0.191
- CTTAGACC — lower, -0.039
- CGCTACCG — lower, -0.188
- AGCATAGC — lower, -0.249
- GGTCTCTA — lower, -0.111
- GGAGTAAC — lower, -0.0314
- AGCGATCA — lower, -0.101
- CAGCGCGA — lower, -0.238
- CATGGGGG — lower, -0.283
- TGCCGGCA — lower, -0.0619
- AAAGCAGG — lower, -0.187
- GCATCCCA — lower, -0.191
- GGTTGGTA — lower, 0.0024
- CTATGATA — lower, 0.157
- CAGCTCTA — lower, -0.0268
- GCCCCGAA — lower, -0.0336
- TACTGAGA — lower, 0.0687
- ACTTCTTA — lower, 0.271
- AAACGGGA — lower, -0.0786
- AAAAATCG — lower, 0.16
- AAGCTCCT — lower, -0.31
- AAGTTCCG — lower, 0.211
- GTGCAGGA — lower, -0.156
- CCAATTTA — lower, 0.212
- AGAATGGA — lower, -0.0576
- CTTCCCCA — lower, -0.251
- ATTGCCGA — lower, -0.0244
- AGCCTGCA — lower, -0.119
- CTATATAG — lower, 0.388
- GGTGTACA — lower, 0.0661
- CTAAAGTA — lower, 0.224
- AACGCCTC — lower, -0.0651
- CCAGTAAC — lower, 0.134
- ATCGCAAG — lower, -0.127
- CAGGGGCG — lower, -0.317
- CGCTTATC — lower, 0.0289
- ACCCGTAG — lower, -0.196
- ACAACCTC — lower, -0.0749
- TTCATGAA — lower, 0.131
- GCGTGTGA — lower, -0.241
- AACGACCT — lower, -0.0501
- CTGTGTGA — lower, 0.0126
- CATTGCGG — lower, -0.0539
- CCCGTCTA — lower, -0.21
- ACAGACCG — lower, -0.151
- ACACATCA — lower, 0.0656
- GAGGGGAC — lower, -0.373
- CGATTAAC — lower, 0.0306
- CATTACCG — lower, -0.0468
- ACTTAAGT — lower, 0.314
- ACAGAGCG — lower, -0.191
- ATTGTGCG — lower, 0.199
- TCTGGACA — lower, -0.0718
- ACTGTCTC — lower, -0.0831
- CATGAGTA — lower, 0.161
- AGGATTCG — lower, -0.148
- AGCTTCGA — lower, -0.173
- CTAAGCTC — lower, -0.123
- ACGGCCCT — lower, -0.185
- ATGGTGCG — lower, -0.157
- CACTTAAG — lower, 0.167
- GAGTTTGC — lower, 0.0199
- GCACGCCC — lower, -0.286
- GCCCATGA — lower, -0.198
- GGTCCTCA — lower, -0.193
- AATCATGT — lower, 0.113
